PubChem BioAssay AID1460 (National Center for Advancing Translational Sciences (NCATS), 2008)
About 5,800 (2.1%) of roughly 270,000 compounds were called active. Inconclusive means that the source gave no clear call. Such entries were picked first, then a sample of the others. Calls follow the shape of the dose curve; as a rule, active = well fitted inhibition curve with a large enough effect; inconclusive = small, poorly fitted or top-dose-only effect; inactive = flat fitted curve, though single readings scatter. A potency beside an inconclusive call is a rough fit, not a confirmed value.

What follows are compounds tested against Microtubule-associated protein tau (Homo sapiens) (UniProt P10636) (assay: qHTS for Inhibitors of Tau Fibril Formation, Thioflavin T Binding). Settings: recombinant tau K18 P301L, heparin-induced fibrillization, ThT fluorescence; series mostly up to 57.4 µM.
Sequence of UniProt P10636 (P10636 whole entry, looked up): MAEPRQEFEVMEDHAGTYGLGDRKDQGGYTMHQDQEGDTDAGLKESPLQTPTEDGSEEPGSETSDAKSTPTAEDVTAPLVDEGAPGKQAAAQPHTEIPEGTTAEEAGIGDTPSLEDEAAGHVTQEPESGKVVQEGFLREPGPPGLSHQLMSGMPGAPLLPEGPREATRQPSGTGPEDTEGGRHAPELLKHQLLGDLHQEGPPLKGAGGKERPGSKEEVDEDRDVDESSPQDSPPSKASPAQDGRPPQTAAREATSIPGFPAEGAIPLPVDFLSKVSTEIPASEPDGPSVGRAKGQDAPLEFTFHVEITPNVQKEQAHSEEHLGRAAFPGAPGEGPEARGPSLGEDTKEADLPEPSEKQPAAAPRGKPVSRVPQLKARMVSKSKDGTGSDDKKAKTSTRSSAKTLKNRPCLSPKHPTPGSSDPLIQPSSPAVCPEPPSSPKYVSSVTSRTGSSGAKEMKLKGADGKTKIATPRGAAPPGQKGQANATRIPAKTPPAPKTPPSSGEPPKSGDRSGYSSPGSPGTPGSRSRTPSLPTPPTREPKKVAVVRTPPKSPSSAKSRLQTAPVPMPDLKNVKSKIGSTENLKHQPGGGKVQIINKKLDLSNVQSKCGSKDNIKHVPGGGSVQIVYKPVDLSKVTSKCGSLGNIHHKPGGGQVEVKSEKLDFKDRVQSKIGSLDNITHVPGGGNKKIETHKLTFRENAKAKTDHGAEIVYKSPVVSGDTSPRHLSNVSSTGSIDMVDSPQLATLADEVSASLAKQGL
In short: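 Fibril formation assay: tau K18 P301L at 15 uM with trace Alexa 594 label, heparin inducer 20 uM, pH 7 sodium acetate buffer, 37 C for 6 hr; endpoint ThT signal.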
Also: nearly all actives have a fitted effect of over 55% in size.
Potency is read from the fitted curve at half-maximal effect; tags tell the direction and shape of the fitted curve.

How did the Potency turn out when `CC(=O)Nc1ccc2nc3c(=O)[nH]c(=O)[nH]c3nc2c1` was run?
The Potency was inconclusive: 20 µM [inhibitor, partial curve].

Which Potency does the source give for `COc1ccccc1C1Nc2ccccc2-n2c(-c3ccccc3)c3c(=O)n(C)c(=O)n(C)c3c21` (stereo not given) here?
The Potency was “inactive”.

With `Cc1ccccc1CCNC(=O)c1ccc2c(c1)nc1n2CCC(C)C1` (stereo not given) as the compound, how does the Potency read?
The Potency was inconclusive: 0.631 µM [inhibitor, partial curve].

Which Potency does the source give for `O=[N+]([O-])c1ccc(C2CN=C(Nc3ccccc3)S2)cc1` (stereo not given) here?
Its Potency is inconclusive: 25.1 µM [inhibitor, partial curve].

With `COc1cccc(-c2cc3nc4c(c(N5CCC6(CC5)OCCO6)n3n2)CCC4)c1` as the compound, how does the Potency read?
The Potency was “inactive”.

`COc1ccccc1C(=O)Nc1ccc(N2CCN(S(C)(=O)=O)CC2)cc1` was tested. Which Potency did it give?
Its Potency is inconclusive: 20 µM [inhibitor, partial curve].

Which Potency does the source give for `Cc1ccc(Cn2c(CNS(=O)(=O)c3ccc(F)c(Cl)c3)nc3cccnc32)cc1` here?
The Potency was “inactive”.

`Cc1ccc(CNC(=O)c2coc(=O)c3ccccc23)o1` was tested. Which Potency did it give?
Its Potency is inconclusive: 31.6 µM [inhibitor, single point].

With `Cc1cc(CN(C)C(=O)c2cc(COc3ccc(F)cc3Cl)on2)n[nH]1` as the compound, how does the Potency read?
The Potency was “inactive”.

With `CCOC(=O)c1cc(/C(C)=N/OC(=O)c2ccc(Cl)cc2)on1` as the compound, how does the Potency read?
Its Potency is inconclusive: 0.891 µM [inhibitor, full curve, poor fit].

For `Cc1ccc(S(C)(=O)=N/C=C2\C(=O)c3sccc3N(C)S2(=O)=O)cc1` (stereo not given), which Potency is on record?
The Potency was inconclusive: 22.4 µM [inhibitor, partial curve].

`COc1ccc(Nc2cc(C(=O)NCCCN3CCN(c4ccc(OC)cc4)CC3)c3ccccc3n2)cc1` was tested. Which Potency did it give?
The Potency was active: 14.1 µM.

Which Potency does the source give for `CSc1nsc(SCC(=O)Nc2ccc3c(c2)OCCO3)n1` here?
Its Potency is inconclusive: 25.1 µM [inhibitor, single point].

Which Potency does the source give for `Cc1ccc(NC(=O)CSc2ccc(-c3cccs3)nn2)cc1Cl` here?
The Potency was “inactive”.

Which Potency does the source give for `COc1ccc(NC2=NC(=S)N(c3ccccc3C)C23CCCCC3)cc1` here?
Its Potency is “inactive”.

Which Potency does the source give for `O=C(c1ccco1)N1CCN(C(=O)c2ccc(COc3ccc4c(c3)CCC4)o2)CC1` here?
The Potency was inconclusive: 10 µM [inhibitor, partial curve].

With `Cc1cccc(N=Nc2cn[nH]c2-c2ccco2)c1` as the compound, how does the Potency read?
Its Potency is inconclusive: 11.2 µM [inhibitor, partial curve].

Which Potency does the source give for `CCCc1nc2c(=O)n(C)c(=O)nc-2n(C)n1` here?
The Potency was active: 14.1 µM.

With `COc1ccc(OC)c(CNC(=O)Cc2ccc(NC(=O)N3CCSc4ncccc43)cc2)c1` as the compound, how does the Potency read?
The Potency was “inactive”.

Which Potency does the source give for `Clc1ccc(/C=N/Nc2ncnc3ccccc23)cc1Cl` here?
The Potency was inconclusive: 2.51 µM [inhibitor, full curve].

How did the Potency turn out when `O=C(/C=C/c1ccc(O)c(O)c1)c1ccc(S(=O)(=O)N2CCCCCC2)cc1` was run?
The Potency was inconclusive: 15.8 µM [inhibitor, partial curve].

How did the Potency turn out when `CCCCc1nn2c(=O)cc(COC(=O)c3ccc(NC(=O)c4ccccc4C)cc3)nc2s1` was run?
Its Potency is “inactive”.

For `Cc1ccc(Nc2nc(N)c([N+](=O)[O-])c(N3CCCC(C)C3)n2)cc1C` (stereo not given), which Potency is on record?
Its Potency is inconclusive: 6.31 µM [inhibitor, partial curve].

For `CCN(CC)c1ccc(C=Nc2ccc(C#N)cc2)c(O)c1`, which Potency is on record?
The Potency was inconclusive: 22.4 µM [inhibitor, partial curve, poor fit].

How did the Potency turn out when `Cc1ccc(-c2cccc(OC(=O)c3ccccc3F)c2)cc1` was run?
The Potency was inconclusive: 5.62 µM [inhibitor, single point].

With `N#Cc1c(-c2ccco2)c2c([nH]c1=S)CCCC2` as the compound, how does the Potency read?
The Potency was inconclusive: 12.6 µM [inhibitor, partial curve].

With `N#CCCN/N=C(/Cc1nc2ccccc2[nH]1)c1cccc(Cl)c1` as the compound, how does the Potency read?
Its Potency is inconclusive: 14.1 µM [inhibitor, partial curve].

With `CCc1ccc(NC(=O)c2sc3nc(C)c(Cl)c(C)c3c2NC(=O)c2ccccc2OC)cc1` as the compound, how does the Potency read?
The Potency was inconclusive: 2.51 µM [inhibitor, single point].

For `N#C/C(=C/c1ccc(-c2ccc(S(N)(=O)=O)cc2)o1)c1nc2ccccc2s1`, which Potency is on record?
The Potency was active: 11.2 µM.

For `CSc1ccc(/C=C/C(=O)N2CCCN(C)CC2)cc1`, which Potency is on record?
The Potency was inconclusive: 35.5 µM [inhibitor, single point].

With `Cc1ccccc1Nc1nc(-c2sc(NC(=O)c3cccc(Cl)c3)nc2C)cs1` as the compound, how does the Potency read?
The Potency was inconclusive: 7.94 µM [inhibitor, full curve].

Which Potency does the source give for `CC(C)OC(=O)CSc1nnc(CNc2nc(-c3ccccc3)cs2)n1C` here?
Its Potency is inconclusive: 39.8 µM [inhibitor, single point].

How did the Potency turn out when `O=C(COC(=O)C1CCCCC1)Nc1cc([N+](=O)[O-])ccc1F` was run?
Its Potency is “inactive”.

Which Potency does the source give for `CCOc1ccc(-c2nnc(NC(=O)CCCOc3cccc(C)c3)o2)cc1` here?
The Potency was inconclusive: 6.31 µM [inhibitor, full curve].

`CCCCc1ccc(NC(=S)Nc2ccc(Nc3ccc(OC)cc3)cc2)cc1` was tested. Which Potency did it give?
Its Potency is active: 8.91 µM.

`N#Cc1c(/N=C/c2ccco2)sc2c1CCC2` was tested. Which Potency did it give?
The Potency was inconclusive: 3.98 µM [inhibitor, full curve].

With `Cc1cccc(-n2c(O)c(C=Nc3cc(O)ccc3C)c3ccccc3c2=O)n1` as the compound, how does the Potency read?
Its Potency is “inactive”.

How did the Potency turn out when `O=C(OCC(=O)c1ccc(Cl)s1)c1ccc2ccccc2n1` was run?
The Potency was inconclusive: 12.6 µM [inhibitor, partial curve].

`COc1ccc(/C=C/C(=O)Nc2ccc3nc4c(c(Nc5ccccc5OC)c3c2)CCCC4)cc1` was tested. Which Potency did it give?
Its Potency is active: 10 µM.

How did the Potency turn out when `CN1CCN(NC(=O)CN2C(=O)/C(=C/c3c(Cl)cccc3Cl)SC2=S)CC1` was run?
The Potency was inconclusive: 25.1 µM [inhibitor, partial curve].

`CC1=NNC(=O)/C1=C\c1cn(-c2ccccc2)nc1-c1ccc(F)cc1` was tested. Which Potency did it give?
The Potency was active: 20 µM.

How did the Potency turn out when `CN(C)c1ccc(C(=O)c2ccc(N(C)C)c3ccccc23)cc1` was run?
The Potency was inconclusive: 39.8 µM [inhibitor, single point].

How did the Potency turn out when `COc1ccccc1NC(=O)CSc1nnc(-c2ccc(NC(C)=O)cc2)n1C` was run?
Its Potency is inconclusive: 20 µM [inhibitor, partial curve].

`Cc1cc(C(=O)COC(=O)c2cc(O)c3ccccc3c2O)c(C)n1CC1CCCO1` (stereo not given) was tested. Which Potency did it give?
Its Potency is active: 14.1 µM.

Which Potency does the source give for `COc1ccccc1NC(=O)c1c(NCc2ccc(OC)c(OC)c2OC)sc2c1CCC2` here?
Its Potency is inconclusive: 25.1 µM [inhibitor, partial curve, poor fit].
